Not every detail of the peptide structures is certain; ends, links or a residue may be inferred. Where a SMILES comes first, the peptide text is derived from it. [ ]: non-standard residue; d: D form. The star is where a group is joined. HYNIC = NNc1ccc(C(=O)*)cn1; For = O=C*
Columns and labels:
E. coli infection [1] = type: in vivo, New Zealand white rabbits; settings: HPLC purified
Method: In order to determine the feasibility of using radiolabeled chemotactic peptides for infection localization in animals that are sensitive to the neutropenic effects of these agents, imaging studies were performed in rabbits with focal E. coli infections. High specific activity ^99m Tc-labeled chemotactic peptide was used in these studies. Six male New Zealand white rabbits weighing 2-3 kg were anesthetized with ketamine and xylazine (15.0 and 1.5 mg/kg) and injected in the left posterior thigh muscle with a 1.0 mL suspension of approximately 2×10^9 E. coli. […] Images were recorded for a preset time of 5 minutes/view with a 15% window centered to include the 140 KeV photopeak of ^99m Tc. […]
After acquiring the final images, the animals were sacrificed by pentobarbital overdose and samples of blood, heart, lung, liver, spleen, kidney, stomach, intestine, testes, bone, marrow, normal skeletal muscle, infected skeletal muscle, and pus were weighed and radioactivity was measured as described above. To correct for radioactive decay, aliquots of the injected doses were counted simultaneously. The results were expressed as percent injected dose per gram. […] The cells were washed with 0.9% NaCl and the residual radioactivity in the cells and supernatant measured. […]

E. coli infection [2] = assay: 99mTc-HP versus 111In-WBC's in rabbits with E. coli infection; type: in vivo, New Zealand white rabbits
Method: Male New Zealand white rabbits weighing 2.2-3.0 kg were used in all studies. E. coli from a single clinical isolate were grown overnight on trypticase soy agar plates and individual colonies were diluted with sterile normal saline to produce a turbid suspension containing approximately 1×10^11 organisms/0.5 mL (determined with a spectrophotometer). A 0.5 mL inoculum of the bacterial suspension was injected deep in the left thigh muscle of the rabbits.
Twenty four hours after inoculation, rabbits with gross swelling in the infected thigh were injected with the radiopharmaceuticals through a lateral ear vein. Six animals were injected with a mixture of 1 mCi ^99m Tc-HP (>5,000 mCi/μMole) and 0.05 mCi of ^111 In labeled white blood cells.
At 3, 6, and 18 hours after injection of the radiolabeled reagents, the animals were anesthetized with ketamine/xylazine (15.0 and 1.5 mg/kg) and anterior whole body scintigrams were acquired using a large field of view gamma camera equipped with a parallel hole medium energy collimator interfaced to a dedicated computer system (Technicare Gemini 700, Technicare 560, Solon, Ohio). ^111 In and ^99m Tc images were acquired simultaneously in dual photon mode with 15% windows centered on photopeaks at 140 KeV for ^99m Tc and 247 KeV for ^111 In. At 3 and 6 hours after injection, two sets of images were acquired for a preset time of 5 minutes/view. At 18 hours after injection, the imaging time was extended to 10 minutes per view. Regions of interest were drawn over the area of infection and the contralateral normal muscle (background). The results were expressed as target-to-background ratios (infected thigh/contralateral thigh).
After acquiring the final images, the animals were sacrificed with an overdose of sodium pentobarbital and biodistribution was determined. Samples of blood, heart, lung, liver, spleen, kidney, adrenal, stomach, GI tract, testes, bone, bone marrow, normal muscle, infected muscle, and pus were weighed and radioactivity was measured with a well type gamma counter (LKB model #1282, Wallac Oy, Finland). To correct for radioactive decay and permit calculation of the concentration of radioactivity in each organ as a fraction of the administered dose, aliquots of the injected doses were counted simultaneously. The results were expressed as percent injected dose per gram (%I.D./g), infected to normal muscle ratios, and pus to normal muscle ratios.
To determine the nature of the radioactivity in the circulation and at the site of infection, the blood and pus samples were fractionated by gradient centrifugation on Lymphoprep. The plasma was further fractionated on a column of Sephadex G-100 (1.0×25 cm) eluted with PBS, pH 7.4. The column was calibrated using ^111 In-IgG, ^111 In-F(ab')2, ^125 I-human albumin, and ^99m Tc-DTPA.

human PMN's = assay: Binding of 99mTc-labeled peptide to human PMN's

| SMILES | time of maximal T/B ratio (E. coli infection [1]) | T/B (infected muscle to contralateral normal muscle), ROI analysis (E. coli infection [2]; 3 hours post injection) | T/B (infected muscle to contralateral normal muscle), ROI analysis (E. coli infection [2]; 6 hours post injection) | mean pus to normal muscle ratio (E. coli infection [2]; 18 hours after injection) | T/B (infected muscle to contralateral normal muscle), ROI analysis (E. coli infection [2]; 18 hours post injection) | average ratio of T/B's (99mTc-HP to 111In-WBC's) (E. coli infection [2]; rabbit, in vivo) | EC50 (human PMN's) |
| --- | --- | --- | --- | --- | --- | --- | --- |
| CSCC[C@H](NC=O)C(=O)N[C@@H](CC(C)C)C(=O)N[C@@H](Cc1ccccc1)C(=O)N[C@H](CCCCNC(=O)c1ccc(NN)nc1)C(N)=O [Example 99mTc-HP4, metal not drawn] (For-MLF[dK](HYNIC)-NH2) | 15 h |  |  |  |  |  |  |
| CSCC[C@H](NC=O)C(=O)N[C@@H](CC(C)C)C(=O)N[C@@H](Cc1ccccc1)C(=O)N[C@@H](CCCCNC(=O)c1ccc(NN)nc1)C(=O)O [Example 99mTc-HP, Formyl-Methionyl-Leucyl-Phenylalanyl-Lysyl-hydrazininicotinamide, metal not drawn] (For-MLFK(HYNIC)-OH) |  | 3.38±0.46 | 3.80±0.37 | 61.8±11.05 | 10.875±1.44 | 2.99±1.88 | < 10 nM |

From patent US5792444A, “Labeled chemotactic peptides to image focal sites of infection or inflammation” (The General Hospital Corporation, priority 1993, dated 1998)
